Data reported in publication PMC9911399, “Two distinct binding modes provide the RNA-binding protein RbFox with extraordinary sequence specificity”.
Numbering of substitutions follows the chain as printed; changes in the protein carry UniProt numbers. The list shows a part of the results.

T1: RBFOX1 RRM (Homo sapiens, UniProt Q9NWB1 109-208)
T1 sequence: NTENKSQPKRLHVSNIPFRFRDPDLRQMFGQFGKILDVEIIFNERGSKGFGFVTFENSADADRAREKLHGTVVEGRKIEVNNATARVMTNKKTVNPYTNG

B1: CUUAAAC (DNA:RNA)
RNA: GGGAGACCGGAAUUCAGAUUGUCCCUUAAACUUAAAUCCCGUCGUAGCCACCA
DNA 1: CAATCTGAATTCCGGTCTCCC
DNA 2: TGGTGGCTACGACGGGATT
B2: GAUGUAC (DNA:RNA)
RNA: B1 RNA with C25G, U26A, A28G, A29U
DNA 1: CAATCTGAATTCCGGTCTCCC
DNA 2: TGGTGGCTACGACGGGATT
B3: GCGUCUC (DNA:RNA)
RNA: B1 RNA with C25G, U26C, U27G, A28U, A29C, A30U
DNA 1: CAATCTGAATTCCGGTCTCCC
DNA 2: TGGTGGCTACGACGGGATT
B4: AGCCAAU (DNA:RNA)
RNA: B1 RNA with C25A, U26G, U27C, A28C, C31U
DNA 1: CAATCTGAATTCCGGTCTCCC
DNA 2: TGGTGGCTACGACGGGATT
B5: AGGAUCU (DNA:RNA)
RNA: B1 RNA with C25A, U26G, U27G, A29U, A30C, C31U
DNA 1: CAATCTGAATTCCGGTCTCCC
DNA 2: TGGTGGCTACGACGGGATT
B6: GGAGAUA (DNA:RNA)
RNA: B1 RNA with C25G, U26G, U27A, A28G, A30U, C31A
DNA 1: CAATCTGAATTCCGGTCTCCC
DNA 2: TGGTGGCTACGACGGGATT
B7: CAUCUUC (DNA:RNA)
RNA: B1 RNA with U26A, A28C, A29U, A30U
DNA 1: CAATCTGAATTCCGGTCTCCC
DNA 2: TGGTGGCTACGACGGGATT
B8: AAAUACG (DNA:RNA)
RNA: B1 RNA with C25A, U26A, U27A, A28U, A30C, C31G
DNA 1: CAATCTGAATTCCGGTCTCCC
DNA 2: TGGTGGCTACGACGGGATT
B9: AUAUGCU (DNA:RNA)
RNA: B1 RNA with C25A, U27A, A28U, A29G, A30C, C31U
DNA 1: CAATCTGAATTCCGGTCTCCC
DNA 2: TGGTGGCTACGACGGGATT
B10: CCUAGUU (DNA:RNA)
RNA: B1 RNA with U26C, A29G, A30U, C31U
DNA 1: CAATCTGAATTCCGGTCTCCC
DNA 2: TGGTGGCTACGACGGGATT
B11: AUUGAAU (DNA:RNA)
RNA: B1 RNA with C25A, A28G, C31U
DNA 1: CAATCTGAATTCCGGTCTCCC
DNA 2: TGGTGGCTACGACGGGATT
B12: CUUUCUU (DNA:RNA)
RNA: B1 RNA with A28U, A29C, A30U, C31U
DNA 1: CAATCTGAATTCCGGTCTCCC
DNA 2: TGGTGGCTACGACGGGATT
B13: AAAUUGG (DNA:RNA)
RNA: GGGAGACCGGAAUUCAGAUUGUCCAAAUUGGUUAAAUCCCGUCGUAGCCACCA
DNA 1: CAATCTGAATTCCGGTCTCCC
DNA 2: TGGTGGCTACGACGGGATT
B14: AGCGUCG (DNA:RNA)
RNA: B13 RNA with A26G, A27C, U28G, G30C
DNA 1: CAATCTGAATTCCGGTCTCCC
DNA 2: TGGTGGCTACGACGGGATT
B15: UUAACUU (DNA:RNA)
RNA: B1 RNA with C25U, U27A, A29C, A30U, C31U
DNA 1: CAATCTGAATTCCGGTCTCCC
DNA 2: TGGTGGCTACGACGGGATT
B16: ACCGUCC (DNA:RNA)
RNA: B13 RNA with A26C, A27C, U28G, G30C, G31C
DNA 1: CAATCTGAATTCCGGTCTCCC
DNA 2: TGGTGGCTACGACGGGATT
B17: ACCAGCU (DNA:RNA)
RNA: B13 RNA with A26C, A27C, U28A, U29G, G30C, G31U
DNA 1: CAATCTGAATTCCGGTCTCCC
DNA 2: TGGTGGCTACGACGGGATT
B18: CCGUUGG (DNA:RNA)
RNA: B13 RNA with A25C, A26C, A27G
DNA 1: CAATCTGAATTCCGGTCTCCC
DNA 2: TGGTGGCTACGACGGGATT
B19: GAUGUUG (DNA:RNA)
RNA: B13 RNA with A25G, A27U, U28G, G30U
DNA 1: CAATCTGAATTCCGGTCTCCC
DNA 2: TGGTGGCTACGACGGGATT
B20: GCUUUAA (DNA:RNA)
RNA: B13 RNA with A25G, A26C, A27U, G30A, G31A
DNA 1: CAATCTGAATTCCGGTCTCCC
DNA 2: TGGTGGCTACGACGGGATT

biological target: T1, RBFOX1 RRM; test: EMSA; HiTS-Eq, 1 nM pool, 10 min; buffer printed only for the single-RNA assays: 10 mM Tris pH 7.5, 150 mM NaCl, 3.4 mM EDTA, 0.001% NP-40, 30 C; conditions: tags: His6 N-terminal (pET28a); label: 5' 32P
How it was run: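 Purified wild-type or mutant RbFox RRM at increasing concentrations was equilibrated with 1 nM of 5′-radiolabelled RNA carrying 7 randomized nucleotides for 10 min in 50 µL. Unbound RNA was separated by 8% native PAGE and sequenced. Relative association constants came from read-count changes of each RNA species compared with the control reaction, normalised to the cognate motif.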

Binder | binding signal
B1 | 0.00387 KA relative to UGCAUGU
B2 | 0.016 KA relative to UGCAUGU
B3 | 0.00853 KA relative to UGCAUGU
B4 | 0.00281 KA relative to UGCAUGU
B5 | 0.016 KA relative to UGCAUGU
B6 | 0.0149 KA relative to UGCAUGU
B7 | 0.00151 KA relative to UGCAUGU
B8 | 0.00384 KA relative to UGCAUGU
B9 | 0.00817 KA relative to UGCAUGU
B10 | 0.00703 KA relative to UGCAUGU
B11 | 0.00729 KA relative to UGCAUGU
B12 | 0.0102 KA relative to UGCAUGU
B13 | 0.00858 KA relative to UGCAUGU
B14 | 0.00992 KA relative to UGCAUGU
B15 | 0.00357 KA relative to UGCAUGU
B16 | 0.00549 KA relative to UGCAUGU
B17 | 0.0028 KA relative to UGCAUGU
B18 | 0.0158 KA relative to UGCAUGU
B19 | 0.0181 KA relative to UGCAUGU
B20 | 0.0104 KA relative to UGCAUGU
